Test results reported in patent publication US20150168420A1, “BIOORTHOGONAL CHEMICAL INDUCERS OF REVERSIBLE DIMERIZATION FOR CONTROL OF PROTEIN FUNCTION IN CELLS” (MAX-PLANCK-GESELLSCHAFT ZUR FÖRDERUNG DER WISSENSCHAFTEN …, priority 2012, published 2015).

System: Atg16L-Atg5-Atg12 complex
Conditions: 1 μM; for autophagy (LC3 localization, LC3-II formation): starved EGFP-LC3 MCF-7 cells; for localization of Atg16L-Atg5-Atg12 complex: starved MCF-7 cells

| SMILES | autophagy (LC3 localization, LC3-II formation) | localization of Atg16L-Atg5-Atg12 complex |
| --- | --- | --- |
| CCC(C(=O)N1CCCCC1C(=O)O[C@H](CCc1ccc(OC)c(OC)c1)c1cccc(OCC(=O)NCCCOCCOCCOCCCNC(=O)COc2c(OC)cc(Cc3cnc(N)nc3N)cc2OC)c1)c1cc(OC)c(OC)c(OC)c1 (stereo partly shown) [SLF′-TMP] | rapid and significant suppression of autophagy | rapid translocation of Atg16L-Atg5-Atg12 complex to the plasma membrane |
| COc1cc(Cc2cnc(N)nc2N)cc(OC)c1OC [TMP, 5-(3,4,5-trimethoxybenzyl)pyrimidine-2,4-diamine] | restores LC3-II formation | rapidly recovers the level of Atg16L complex in the cytosol |
